In the supplement of paper PMC10126150:
Values marked as one replicate rest on one cluster of the flow cell; about a third of the high ones do not repeat.

System: ATP
Assay: switch fluorescence ratio, 500 uM ATP over buffer (Cy3 cluster intensity, sum of 5 cycles each) (fold (ratio)); higher = stronger signal-on switching upon ATP binding; sequences stand for … in TCGTCGGCAGCGTCAGATGTGTATAAGAGACAGTTTTTTTTTTTTTTTTTTTTTTTTT…TC
Conditions: aptamer strand: ATP DNA aptamer (quencher-CACCTGGGGGAGTATTGCGGAGGAAGG + anchor), 100 nM annealed; ATP concentration: 500 uM; one replicate
Procedure, shortened: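 Five buffer/ATP imaging cycles were run on Cy3-labelled switching-strand clusters on a modified Illumina MiSeq flow-cell, with NaOH stripping and re-annealing between cycles. In each cycle, clusters annealed to 100 nM quencher-labelled ATP aptamer were imaged in selection buffer, then after 15 min with 500 uM ATP at 22 °C. Per cluster, the fluorescence ratio is summed target-cycle over summed buffer-cycle Cy3 intensity, averaged per switch-domain sequence. Only clusters within 100-1000 RFU were kept.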
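Also: ATP exposure 15 min at 22 °C before imaging.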

Sequence	switch fluorescence ratio
GTTTGTACTT	0.998
GGTTACATAT	1.04
TTCGGCATGT	1.02
TTACTTGGTC	1.05
AAGGACTACC	1.07
GTTAACGCTG	1.03
CAACAACGAG	1.01
ATAAAGGCAT	0.983
GCGAGGGTAA	1.03
TCTTAGTTCT	0.979
GCCTCTAACA	1.04
AATCGAGTTT	1.06
TCTGAACCCT	1.06
TTGTGTGGT	1.04
GTAACCGGTT	0.979
ATGAAGAATG	1.02
AACATCCAGG	1.69
TAGAATGTAT	0.958
TTGTATTGGC	0.966
AGGGGATCCA	0.976
ACCGTTCTTC	1.04
TAATTTGGT	0.97
ATGGTATTGC	1.04

Sequence	switch fluorescence ratio
TATCAAATAG	1.03
TGTTACACCA	1.04
ATCTGGTGT	1.08
CGGGAACGTA	0.97
AACTTAAAGG	1.02
CTTTTGTTGC	0.999
TCAGCTCAAC	1.12
AGAATTATGA	0.985
AACCAAATGG	0.986
GACCGCCGTG	0.957
GGGTTCAACT	0.999
CGTGACCTTG	1.01
GGGTGTTAAT	0.974
CACATGCAGG	1.02
TAAAATTGCG	1.05
GCGTGTAAAT	1.04
GTGACCCATA	1.03
GTAAGACAAC	1
TTTGCGGCGA	1.02
AAATAGTTCG	0.974
AGTCCGGCAC	1.04
GGTTTGGCCC	1.01
GCAATTTCGG	1.11

Sequence	switch fluorescence ratio
TTGATCCTGT	1.01
GGACTGTTAA	1.05
AGGCGCCGTG	1
ATTTTTAGTC	1.04
CGGCATATGA	1.09
CGGTCTGAGC	0.991
AGGGCGGGT	1.11
ACTTTGTATC	0.963
GTGATAACGT	1.01
CAAGGGGATA	0.989
TTCGCCATTA	0.976
CACCGGGCTG	1.16
GGATCAGGG	1.03
GCCGTCACTT	0.996
TAGAACGCTT	1.01
CGTTGGCTGA	1
GGGTCTTGAG	1.02
GCTGGAAGAG	0.992
GCTAGCGGAG	1.02
GGCCCCCAGT	1.1
TTGGCGCCGG	0.941
GGGTAACGCG	1.05
TTGGACTTGC	0.991

Sequence	switch fluorescence ratio
CAGGACTGGT	0.984
TTGAGGAGGA	0.996
AAGCAGGCCA	1.11
GCGCCGAGTC	1.08
ACCTGTGGCG	1.09
TTACTAATTC	1.04
CAACAGCCGT	0.987
ATACTGGGTC	0.995
CGAGTACACT	1.06
GTCATGGGTG	1.07
GCGTGGCCCG	1.02
GATCAACGAA	0.966
ATTTTTACAT	1
TAACCGGCAG	1.07
AAGTGGCGGA	0.992
GATTTGGATG	0.984
CGCGGAGAAC	1.08
TGAGTTTCCC	0.981
AATTCCAGCG	1
CCGCTGGTCA	1.39
GAGTCCGTTT	1.09
CTGCATGGGT	1.03
ATGGGACTAT	0.991

Sequence	switch fluorescence ratio
GAGCGAGCGT	1.01
GGGGCATATG	1.01
CAACTTTATA	1.02
GATACGGCCG	1.04
CCTATTCTG	0.979
CTTTAGTCGA	1.02
TCGCGGCAGA	1.01
GATATCGTC	0.968
ACTATCCCAC	3.34
AGGTTCCCAC	1
TCGCCCTGGA	1.02
AGAGGTGCTT	1.07
AAAAGTAGGC	1.07
CGTATACGTT	0.982
AGATGGACAA	0.977
TGAGAACGTT	1.05
GTTACGTCCA	1.02
GCTCACTAGA	1.05
AAACTAGGG	0.998
TCTGATTAAC	0.992
TATTCTACAG	1.04
TTAATCTTT	0.962
CTGATAAAAT	1.02

Sequence	switch fluorescence ratio
TATGCCCGG	1.01
CCTTTAGCA	2.01
GGAGTCAAGG	1.1
TGGTCAATTT	0.962
CGACAGGTAC	2.38
GGTCCGTTGT	0.968
TGGGTACGTG	1
CGTGGGCATA	1.19
GCGTAATGCG	1.05
ACCTAATGTA	1.04
TAACTTTGGA	0.96
CTCACTGGGG	1
TAGCATAGAA	0.97
TTTTTTCGG	0.96
CTGGAAAATT	0.932
TGCGGTAGCT	1.04
CGAACAGAC	1.23
CCGAGGGTCC	1.08
TATTACACGA	1.02
TGCGTTTTAG	1.04
TTCCAGTAAC	1.01
CCCAAGCATG	1.5
GAAGCGTGTT	1.08

Sequence	switch fluorescence ratio
AATGGGCCAT	0.954
ACGCTTAT	1.1
GGTATAAGCC	0.972
AGCAGTTACG	1.13
TCTGACGTGT	1.03
ACCCGGGTGG	1.42
TATTGATTGT	0.974
GTTGGAATAG	1.11
TTTGCAGTTA	1.04
TAGTCCGATA	0.984
CAATGGGATG	0.998
AGGCTTTAA	1.02
CCACCCAGAT	1.28
CGAAGGTCGT	1.03
GGAAATCGAC	1.17
AGGGATTGAG	1.01
GTTTAAGTCA	1.01
GGCCGTAAGG	0.991
GGGTAAGACA	1.01
